Out of some 390,000 compounds screened, about 2,200 (0.56%) were called active. The inconclusive results got no clear call from the source; some entries with a clear call stand among them for comparison. Calls come from the whole dose curve; as a rule, active = well fitted inhibition curve with a large enough effect; inconclusive = small, poorly fitted or top-dose-only effect; inactive = no such curve, though single readings can be large or run the other way. Potencies beside an inconclusive call are fits to weak or partial responses and may not hold up.
These compounds were tested against Chromobox protein homolog 1 (Homo sapiens) (UniProt P83916) (assay: HTS for Inhibitors of HP1-beta Chromodomain Interactions with Methylated Histone Tails). Settings: AlphaScreen HP1-beta / biotin-H3K9me3 peptide binding; series mostly up to 114 µM; activity change, negative = inhibition: at the top concentration.
UniProt P83916, sequence (P83916 whole entry, looked up): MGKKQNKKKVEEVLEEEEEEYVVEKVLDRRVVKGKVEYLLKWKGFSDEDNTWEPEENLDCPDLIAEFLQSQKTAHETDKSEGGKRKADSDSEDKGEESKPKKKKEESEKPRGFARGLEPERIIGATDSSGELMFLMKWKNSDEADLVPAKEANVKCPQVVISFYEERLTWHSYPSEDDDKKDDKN
Source text: As our understanding of epigenetics expands, it is becoming clear that players in this field are potential targets for drug development. This area of epigenetic therapy has established applications for the treatment of cancer and neurological diseases. We have been involved in this field for a number of years and have performed high-throughput screens to identify the first small molecule inhibitors of protein methyltransferases. These methyltransferases target multiple substrates, and thus regulate many arms of an epigenetic pathway. The methylation of different substrates often generates docking sites for effector proteins that harbor binding domains (chromo, tudor, PHD, MBT and ANK repeats). It has been proposed that the binding sites generated for different proteins by these post-translational modifcations mediate downstream effects on chromatin. Consistent with this theory, di- and tri-methylation of histone H3K9 facilitates the binding of heterochromatin protein HP1. The HP1 protein harbors a chromodomain that is responsible for the methyl-dependent interaction between HP1 and lysine 9 of histone H3. HP1 was first described in flies as a heterochromatin associated protein that can regulate gene silencing. It harbors a chromodomain that binds H3K9me3. In addition, it harbors a chromoshadow domain that interacts with a large number of proteins that are involved in heterochromatin formation and gene repression. There are three highly related HP1 isoforms. All three variants are associated with pericentric heterochromatin and it is not clear whether they have specific or redundant functions. MPP8 is also involved in the repression of gene in euchromatic regions (unpublished data) and like HP1 its chromodomain binds H3K9me3. MPP8 harbors an ankyrin repeat region that is likely involved in binding and recruiting interacting proteins with transcriptional repressive function, much like the chromoshadow domain of HP1 does. We hypothesize that by inhibiting specific protein-protein interactions we will be able to develop compounds that block a single arm of an epigenetic pathway. The specificity attained by blocking a single protein-protein interaction will be far greater than that attained by blocking the enzyme that regulates one of many interactions. Low-affinity protein-protein interactions (Kd in the single- to double-digit micromolar range) such as those discussed here have been very difficult to assay by traditional techniques such as fluorescence polarization or fluorescence resonance energy transfer. We have developed a sensitive chemiluminescence-based assay (Quinn, et al. 2009), which serves as the starting point for this project. The following is a validation assay to identify lead compounds that can block methyl-dependent protein-protein interactions (specifically HP1-beta), which can be used as probes to analyze these methyl-driven interactions and perhaps even developed into targeted epigenetic therapies. NIH Chemical Genomics Center [NCGC] NIH Molecular Libraries Probe Centers Network [MLPCN] MLPCN Grant: DA031087 Assay Submitter (PI): Mark Bedford, University of Texas, Medical Anderson Cancer Center, TX
To each well, 2 uL of HP1-beta protein (final 50 nM) and 1 uL biotinylated histone peptide trimethylated at Lys9 [b-H3(1-18)K9me3] (final 50 nM) was added in 1x PBS buffer, pH 7.4, containing 0.01% Tween-20 using a nanoliter dispenser. Formation of a protein-peptide complex proceeded at room temperature for 30 min. A Kalypsys pin-tool was employed to transfer 23 nL of library compound solution in DMSO to each well. Aurintricarboxylic acid (ATA) was used as an intraplate control with a 12-point titration in duplicate. Following a 30 min incubation of the protein-peptide complex with compounds at room temperature, a mixture of 40 ug/mL each streptavidin-coated donor and nickel chelate acceptor AlphaScreen beads (final 10 ug/mL) was added in a 1 uL dispense for a final volume of 4 uL. […]
`N#CC1=C2SCN(Cc3ccccc3)CN2C(=O)CC1c1ccccc1F` (configuration not stated) was tested, and the Potency was inconclusive: 39.8 µM [inhibitor, partial curve].
`CN1C(=O)/C(=C2/C=CC=CN2C)OC1=S` was tested, and the Potency was inconclusive: 56.2 µM [inhibitor, partial curve, poor fit].
In the case of `O=C(NNS(=O)(=O)c1ccccc1)c1sccc1-n1cccc1`, the “activity change, negative = inhibition” value is reported as inactive: 33.7%.
For `CCOC(=O)C1=C(Cc2ccc(F)cc2)C(=O)c2ccccc2C1=O`, the Potency was inconclusive: 17.8 µM [inhibitor, partial curve, poor fit].
For `CN(CCOc1ccc(Br)cc1)CC(O)c1ccccc1` (configuration not stated), the Potency was inconclusive: 15.8 µM [inhibitor, partial curve, poor fit].
With `Cn1c(CCNC(=O)c2ccccc2Cl)n[nH]c1=S` the “activity change, negative = inhibition” value was inactive: 9.08%.
In the case of `O=C(/C(=C/O)N=Nc1cccc(C(F)(F)F)c1)c1ccccc1`, the Potency is reported as inconclusive: 20 µM [inhibitor, partial curve, poor fit].
With `Cc1cc(C)c(NC(=O)OCCN2CCOCC2)c(C)c1` the Potency was inconclusive: 6.31 µM [inhibitor, single point].
In the case of `O=C(O)C1CCCCC1C(=O)Nc1ccc(S(=O)(=O)N2CCCCCC2)cc1` (configuration not stated), the Potency is reported as inconclusive: 89.1 µM [inhibitor, partial curve, poor fit].
`O=C(NNC(=O)C1CCCC1)c1ccccc1F` was tested, and the “activity change, negative = inhibition” value was inactive: 20.7% [at 57 µM].
`COc1cc2c(cc1OC)CN(c1nc(CN3CCOCC3)nc3sc4c(c13)CCC(C)C4)CC2` (configuration not stated) was tested, and the Potency was inconclusive: 89.1 µM [inhibitor, single point].
`CC(Sc1nc2c([nH]c3ccccc32)c(=O)n1-c1ccccc1)c1ccccc1` (configuration not stated) was tested, and the “activity change, negative = inhibition” value was inactive: 5.84% [at 57 µM].
With `Cc1ccc(C(=O)N[C@@H](Cc2ccccc2)C(=O)N2CCC3(CC2)NCCc2[nH]cnc23)cc1C` the “activity change, negative = inhibition” value was inactive: 41.2%.
With `CCN(CC)c1ccc(NC(=S)NC(=O)C2CCC2)cc1` the Potency was inconclusive: 31.6 µM [inhibitor, full curve].
`O=C(NCCNC1CCC(c2ccccc2)CC1)c1ccc(F)cc1` (configuration not stated) was tested, and the Potency was inconclusive: 56.2 µM [inhibitor, single point].
For `COc1ccc(Cl)cc1NC(=O)c1ccc2c(SCC(=O)O)c3c(nc2c1)CCCC3`, the Potency was inconclusive: 25.1 µM [inhibitor, single point].
With `COc1ccccc1NC(=O)C1=C(C)Nc2nc(SCc3cccc(F)c3)nn2C1c1ccc(C(=O)O)cc1` (configuration not stated) the “activity change, negative = inhibition” value was inactive: 29.9%.
`CC1CCN(CCOCCOc2ccc(Cl)cc2Br)CC1` was tested, and the Potency was inconclusive: 56.2 µM [inhibitor, single point].
With `COc1ccc(N/C=C(\C#N)c2nc3ccccc3n2C)c(OC)c1` the Potency was inconclusive: 22.4 µM [inhibitor, single point].
For `Cc1nn(Cc2ccccc2)c(Cl)c1/C=C1\NC(=S)NC1=O`, the “activity change, negative = inhibition” value was inactive: 12.5%.
For `CCCCOc1ccc(NC(=O)CN2CCN(CC)CC2)cc1`, the Potency was inconclusive: 31.6 µM [inhibitor, partial curve].
With `O=C(CSc1ccc2nnc(-c3cccc(F)c3)n2n1)NCC1CCCO1` (configuration not stated) the Potency was inconclusive: 89.1 µM [inhibitor, single point].
In the case of `CCn1nc(NS(=O)(=O)c2ccc([N+](=O)[O-])cc2)c2cc3cc(C)ccc3nc21`, the Potency is reported as inconclusive: 35.5 µM [inhibitor, full curve].
For `CC1=C(SCc2ccccc2)C(=O)c2ccccc2C1=O`, the Potency was inconclusive: 14.1 µM [inhibitor, partial curve, poor fit].
For `O=C(CC(NCc1cccnc1)C(=O)O)Nc1ccc(O)cc1` (configuration not stated), the Potency was inconclusive: 39.8 µM [inhibitor, partial curve, poor fit].
In the case of `O=C(COc1ccc(Br)cc1)OCCN1CCCCC1`, the “activity change, negative = inhibition” value is reported as inactive: 59.9%.
For `Nc1[nH]n(-c2ccccc2)c(=O)c1N=Nc1ccc2c(c1)OCO2`, the Potency was inconclusive: 10 µM [inhibitor, full curve, poor fit].
For `CC1CN(CCOCCOc2ccccc2-c2ccccc2)CC(C)O1` (configuration not stated), the Potency was inconclusive: 31.6 µM [inhibitor, partial curve].
For `Cc1cc(C)c(NC(=O)Nc2csc3c2CCCC3)c(C)c1`, the “activity change, negative = inhibition” value was inactive: 7.93%.
For `O=c1c(O)c(-c2ccccc2)oc2cc(O)cc(O)c12`, the “activity change, negative = inhibition” value was inactive: 34.2%.
`C=C(C)C1CC=C(CN2CCC(C(=O)OCC)CC2)CC1` (configuration not stated) was tested, and the Potency was inconclusive: 39.8 µM [inhibitor, partial curve, poor fit].
`NC(=S)Cc1nc(-c2ccccc2)cs1` was tested, and the Potency was inconclusive: 35.5 µM [inhibitor, single point].
With `N#C/C(=C/c1ccc(O)c([N+](=O)[O-])c1)C(=O)Nc1ccccc1` the Potency was inconclusive: 50.1 µM [inhibitor, partial curve, poor fit].
In the case of `CCOC(=O)N1CCN(CC(c2ccccc2)c2ccccc2)CC1`, the Potency is reported as inconclusive: 14.1 µM [inhibitor, partial curve, poor fit].
`Cc1ccc(-c2ccc(/C=N\n3cnnc3)o2)c(Br)c1` was tested, and the “activity change, negative = inhibition” value was inactive: 9.46%.
In the case of `O=C(NCc1ccco1)c1ccc(S(=O)(=O)N2CCOCC2)cc1`, the Potency is reported as inconclusive: 50.1 µM [inhibitor, partial curve, poor fit].
In the case of `S=C(NC1CCCCC1)N1CCN(c2ccccn2)CC1`, the Potency is reported as inconclusive: 39.8 µM [inhibitor, single point].
With `CCN1CCN(CC(=O)N2c3ccccc3CC2C)CC1` (configuration not stated) the Potency was inconclusive: 10 µM [inhibitor, partial curve, poor fit].
In the case of `Cn1c(-c2ccc(F)cc2)cnc1NCc1ccc(C#N)cc1`, the Potency is reported as inconclusive: 50.1 µM [inhibitor, partial curve].
With `O=C(CSC1=NS(=O)(=O)c2cc(F)ccc2N1)Nc1ccccc1` the “activity change, negative = inhibition” value was inactive: 16.6%.
For `CCC1Sc2ccc(S(=O)(=O)CCC(=O)Nc3cccc(Br)c3)cc2NC1=O` (configuration not stated), the Potency was inconclusive: 28.2 µM [inhibitor, full curve].
With `Fc1ccc2[nH]c3c(NCCN4CCOCC4)ncnc3c2c1` the Potency was inconclusive: 35.5 µM [inhibitor, partial curve, poor fit].
In the case of `O=[N+]([O-])c1c(Nc2ccccc2O)cc(Cl)c2nonc12`, the Potency is reported as inconclusive: 39.8 µM [inhibitor, partial curve, poor fit].
In the case of `Cc1cc(=O)n(CC(=O)NC(C)c2ccccc2)c2c1c(C)nn2C` (configuration not stated), the Potency is reported as inconclusive: 89.1 µM [inhibitor, single point].
With `CCc1c(C(C)S(=O)(=O)c2ccccc2)[nH]c(=O)n1CC` (configuration not stated) the “activity change, negative = inhibition” value was inactive: -32.5%.
With `Cn1c(=O)n(C)c2cc(NS(=O)(=O)c3ccc(C(C)(C)C)cc3)c(NCc3ccccc3)cc21` the Potency was inconclusive: 28.2 µM [inhibitor, partial curve, poor fit].
For `CCCCC(=O)NC(=S)Nc1cc([N+](=O)[O-])ccc1OC`, the “activity change, negative = inhibition” value was inactive: 36%.
For `COc1ccc2[nH]cc(CCn3ccc(O)c(C/C=C/c4ccccc4)c3=O)c2c1`, the Potency was inconclusive: 31.6 µM [inhibitor, partial curve].
With `COc1ccc(C2=C(O)C(C)N(c3ccccc3)C2=N)cc1OC` (configuration not stated) the “activity change, negative = inhibition” value was inactive: 30.1%.
For `CCOC(=O)C(=CNNc1cccc(Cl)c1)C(=O)OCC`, the Potency was inconclusive: 79.4 µM [inhibitor, single point].
For `CN(C)c1nc(SCC(=O)Nc2ccc(Cl)c(Cl)c2)nc(N2CCOCC2)n1`, the Potency was inconclusive: 89.1 µM [inhibitor, single point].
`CCOC(=O)C1CCN(Cc2ccc(N(C)C)cc2)CC1` was tested, and the Potency was inconclusive: 15.8 µM [inhibitor, partial curve, poor fit].
With `COc1ccc(-c2nc3ccccn3c2/N=C/c2ccc(OC)c(OC)c2)cc1O` the Potency was inconclusive: 10 µM [inhibitor, full curve, poor fit].
In the case of `Cc1c(Nc2scc(-c3ccccc3)[n+]2-c2ccccc2)c(=O)n(-c2ccccc2)n1C`, the Potency is reported as inconclusive: 25.1 µM [inhibitor, full curve].
For `CC(=O)Oc1ccc(/C=C2/SC(=S)N(Cc3ccccc3)C2=O)cc1`, the Potency was inconclusive: 14.1 µM [inhibitor, full curve].
With `O=C1[C@@H]2[C@@H](CN3CN(c4ccccc4)N=C(c4ccccc4)[C@@]23c2ccccc2)C(=O)N1c1ccccc1` the Potency was inconclusive: 56.2 µM [inhibitor, partial curve, poor fit].
For `COc1cc(CC2COC(c3ccc(O)c(OC)c3)C2COC(C)=O)ccc1O` (configuration not stated), the Potency was inconclusive: 39.8 µM [inhibitor, partial curve, poor fit].
In the case of `Cc1cc(O)c(C(C)C)cc1N=Nc1ccccc1C(=O)O`, the Potency is reported as inconclusive: 39.8 µM [inhibitor, partial curve, poor fit].
In the case of `CCOC(=O)c1c(C)[nH]c(-c2csc(N)n2)c1C`, the Potency is reported as inconclusive: 35.5 µM [inhibitor, partial curve, poor fit].
`COc1ccc(/C=N/NC(=O)c2ccc(O)cc2O)cc1CSc1ccccn1` was tested, and the Potency was inconclusive: 17.8 µM [inhibitor, full curve].
`CCN(C(=O)c1ccc2c(=O)n3c(nc2c1)CCCCC3)c1cc(C)ccc1C` was tested, and the “activity change, negative = inhibition” value was inactive: 34.4%.
With `C/C(CC(=O)NCc1ccc(F)cc1)=N\NC(N)=S` the Potency was inconclusive: 70.8 µM [inhibitor, partial curve].
For `COc1ccc(CCNC(=O)/C=C/c2ccco2)cc1`, the Potency was inconclusive: 25.1 µM [inhibitor, full curve].
`Cc1ccc2[nH]c(=O)c(C(c3nnnn3Cc3ccccc3)N3CCc4ccccc43)cc2c1` (configuration not stated) was tested, and the “activity change, negative = inhibition” value was inactive: -2.84%.
In the case of `COc1ccc(N2CCN(Cc3nc(-c4ccc(C)cc4)no3)CC2)cc1`, the Potency is reported as inconclusive: 12.6 µM [inhibitor, full curve].
With `CCN(CCCNC(=O)c1[nH]c(C)c(C(C)=O)c1C)c1cccc(C)c1` the Potency was inconclusive: 56.2 µM [inhibitor, partial curve].
For `Nc1ccccc1-c1n[nH]c(=S)s1`, the Potency was inconclusive: 56.2 µM [inhibitor, single point].

From PubChem BioAssay AID540317 (National Center for Advancing Translational Sciences (NCATS), 2011)
Note: nearly all actives have a fitted effect of over 70% in size.
Potency is the fitted concentration of half-maximal effect; tags give direction and shape of the fitted curve.
